# Experimental data as given in PubChem BioAssay AID360 (National Center for Advancing Translational Sciences (NCATS), 2006).
# The campaign covered roughly 48,000 compounds. About 550 (1.1%) were called active. Not shown: some 4% with an inconclusive outcome. Rule as the data show it: active = potency below about 15 µM; inconclusive = mostly about 16 µM to 33 µM; inactive = weaker than that. The list shows a part of the results.
# Biological target: Lysosomal acid glucosylceramidase (Homo sapiens) (UniProt P04062)
# UniProt P04062, sequence (P04062 whole entry, looked up): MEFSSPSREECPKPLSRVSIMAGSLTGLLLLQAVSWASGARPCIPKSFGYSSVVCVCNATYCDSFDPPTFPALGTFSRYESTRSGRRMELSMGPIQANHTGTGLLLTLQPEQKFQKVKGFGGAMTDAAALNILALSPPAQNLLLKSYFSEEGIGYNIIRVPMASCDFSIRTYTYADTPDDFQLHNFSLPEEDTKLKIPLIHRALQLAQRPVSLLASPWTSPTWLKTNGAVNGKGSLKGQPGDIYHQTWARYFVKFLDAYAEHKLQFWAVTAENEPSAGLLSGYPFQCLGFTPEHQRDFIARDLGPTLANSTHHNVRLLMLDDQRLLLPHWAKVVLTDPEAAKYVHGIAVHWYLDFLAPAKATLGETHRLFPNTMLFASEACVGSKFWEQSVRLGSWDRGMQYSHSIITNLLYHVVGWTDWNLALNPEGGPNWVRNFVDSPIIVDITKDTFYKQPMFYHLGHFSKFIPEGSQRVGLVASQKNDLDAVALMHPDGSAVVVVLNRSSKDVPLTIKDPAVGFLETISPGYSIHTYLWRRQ
# Test: Glucocerebrosidase;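 also: the screen sought inhibitors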
# Settings: purified enzyme, resorufin glucoside fluorescence (screen aimed at inhibitors), 20 min; series mostly up to 77 µM
# Outline: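 Compounds titrated against 0.2 nM normal enzyme, 30 uM resorufin beta-D-glucopyranoside substrate, citrate/phosphate buffer with taurocholate and tween-20, pH 5.9. Reaction ran 20 min at room temperature; fluorescence (Ex 548/Em 600) gave AC50.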
# Potency is read from the fitted curve at half-maximal effect.
row,Structure (SMILES),Potency
1,NC(=O)c1c(N)sc2c1CCCCC2,inactive: > 76.9 µM
2,O=C(OCC(=O)N1CCN(C(=O)c2ccco2)CC1)C1=COCCO1,inactive: > 76.9 µM
3,CCc1cc(=O)oc2cc(C)cc(OC(C)C(=O)O)c12 (configuration not stated),inactive: > 76.9 µM
4,Cc1ccc(-c2nnc(CSc3nc4cc5c(cc4cc3C)OCO5)o2)cc1,inactive: > 76.9 µM
5,CCOc1cccc(-c2nnc3sc(-c4cc(OC)c(OC)cc4OC)nn23)c1,inactive: > 76.9 µM
6,CC(=O)c1c(C)[nH]c(C(=O)N2CCc3ccccc3C2)c1C,inactive: > 76.9 µM
7,Cc1cc2cc(CNC(=O)NC3CCCCC3)ccc2[nH]1,inactive: > 76.9 µM
8,Cn1c(N2CCCC2)nc2c1c(=O)n(Cc1ccc(F)cc1)c(=O)n2C,inactive: > 76.9 µM
9,Cn1ncc(Cl)c1C(=O)Nc1cccnc1,inactive: > 76.9 µM
10,CCOC(=O)c1c(C)n(CCO)c2ccc(O)cc12,inactive: > 76.9 µM
11,O=S1(=O)N=C(Nc2ccc(N3CCOCC3)cc2)c2ccccc21,inactive: > 76.9 µM
12,CCC(C)(C)NC(=O)C(c1ccc(C)o1)N(Cc1cccs1)C(=O)Cn1nnc2ccccc21 (configuration not stated),inactive: > 76.9 µM
13,CC1CCCCC1NC(=O)CN(C)S(=O)(=O)c1cccc2nsnc12 (configuration not stated),inactive: > 76.9 µM
14,O=C(NCc1cccnc1)c1c[nH]c2cc3c(cc2c1=O)OCCO3,inactive: > 76.9 µM
15,C=CCNc1nc2c(c(=O)n(C)c(=O)n2C)n1CCCCCC,inactive: > 76.9 µM
16,CCOC(=O)CSc1nc2ccccc2n1CC(=O)N1CCN(c2ccccc2)CC1,inactive: > 76.9 µM
17,Cc1nn(CC(O)Cn2cnc3c2c(=O)n(C)c(=O)n3C)c(C)c1Br (configuration not stated),inactive: > 76.9 µM
18,CCN(CC)S(=O)(=O)c1ccc(Oc2cccc(C(C)=O)c2)nc1,inactive: > 76.9 µM
19,COc1ccc(-n2c(=O)[nH]cc(C(=O)N3CCCc4ccccc43)c2=O)cc1,inactive: > 76.9 µM
20,O=C(CN1C(=O)COc2ccccc21)Nc1ccc2c(c1)OCCO2,inactive: > 76.9 µM
21,c1ccc(CN2CCC3(CC2)Nc2ccccc2CO3)cc1,inactive: > 76.9 µM
22,O=C(NC1c2ccccc2-c2ccccc21)c1ccco1,inactive: > 76.9 µM
23,CC(C)c1c(O)nc(SCCN(C)C)[nH]c1=O,inactive: > 76.9 µM

row,Structure (SMILES),Potency
1,CC(NC(=O)c1cccnc1)C(=O)N1CCCCC1 (configuration not stated),inactive: > 76.9 µM
2,CCOC(=O)c1oc2ccc(S(=O)(=O)N3CCOCC3)cc2c1C,inactive: > 76.9 µM
3,COc1ccc(CCNC(=O)CSc2nnc(CNC(=O)c3ccco3)o2)cc1OC,inactive: > 76.9 µM
4,O=C(CSc1ncn(-c2ccccc2)n1)c1cccs1,inactive: > 76.9 µM
5,Cc1cc(C)nc(Nc2nc3ccccc3[nH]2)n1,inactive: > 76.9 µM
6,Cc1cc(=O)oc2cc(Oc3ncccn3)ccc12,inactive: > 76.9 µM
7,COCCn1c(SCC(=O)Nc2nc(C)c(Cl)cc2Cl)nc2ccccc21,inactive: > 76.9 µM
8,Cn1c(=O)c2c([nH]c(=O)n2C)n(C)c1=O,inactive: > 76.9 µM
9,Cn1ccnc1SCC(=O)Nc1cccc2ccccc12,inactive: > 76.9 µM
10,CC(=O)c1c[nH]c2ccc(C)cc2c1=O,inactive: > 76.9 µM
11,COc1ccccc1NC(=O)CSc1nnc(CNC(=O)c2ccco2)o1,inactive: > 76.9 µM
12,Cc1ccc(NCc2nnc(SCC(=O)Nc3ncc(C)s3)n2CC2CCCO2)c(C)c1 (configuration not stated),inactive: > 76.9 µM
13,Cc1nc(NC(C)C)c2oc3ccccc3c2n1,inactive: > 76.9 µM
14,O=C(Nc1ccc(N2CCOCC2)cc1)C1CCCN(S(=O)(=O)c2ccccc2)C1 (configuration not stated),inactive: > 76.9 µM
15,O=c1n(-c2ccccc2)c(=O)n2n1CCCC2,inactive: > 76.9 µM
16,COc1cccc(NC(=O)N(CCCN2CCOCC2)C(C)c2cc3cccc(OC)c3o2)c1 (configuration not stated),active: 9.63 µM
17,CCCC(=O)Nc1nc2ccc3nc(C)sc3c2s1,inactive: > 76.9 µM
18,Cc1nc2sc3c(c2c(=O)n1/N=C/c1ccco1)CCCC3,inactive: > 76.9 µM
19,Cc1ccc(N2CC(C(=O)OCC(=O)C(C)(C)C)CC2=O)cc1C (configuration not stated),inactive: > 76.9 µM
20,O=C(CSc1nc2c(c(=O)n1-c1ccc(F)cc1)SCC2)N1CCCC1,inactive: > 76.9 µM
21,c1ccc(CN2CCN(c3ncccn3)CC2)nc1,inactive: > 76.9 µM
22,CCOC(=O)C(C(=O)N1CCOCC1)C1CCCCC1 (configuration not stated),inactive: > 76.9 µM
23,Cn1c(=O)n(Cc2ccccc2)c(=O)c2c1nc1n2CCCN1C1CCCCC1,inactive: > 76.9 µM

row,Structure (SMILES),Potency
1,O=C(CSc1ncc(C(F)(F)F)cc1Cl)N1CCN(S(=O)(=O)c2ccccc2)CC1,inactive: > 76.9 µM
2,C=C(C)c1ccc(C(C)(C)NC(=O)N2CCN(C)CC2)cc1,inactive: > 76.9 µM
3,c1cnc(N2CCN(Cc3c[nH]c4ccccc34)CC2)nc1,inactive: > 76.9 µM
4,CCC(c1nnnn1CCc1ccccc1)N(Cc1ccco1)Cc1cc2c(C)ccc(C)c2[nH]c1=O (configuration not stated),inactive: > 76.9 µM
5,c1ccc(NCc2nnc3n2CCCCC3)cc1,inactive: > 76.9 µM
6,COC(=O)c1ccc(NC(=O)CCNS(=O)(=O)c2cccc3nonc23)cc1,inactive: > 76.9 µM
7,Cc1cccc2cc(COC(=O)C3CCCCC3)c(=O)[nH]c12,inactive: > 76.9 µM
8,O=S(=O)(Nc1ccccc1Cl)c1ccc(F)cc1,inactive: > 76.9 µM
9,COc1ccc(-c2nnc(SCc3csc(N)n3)n2C)cc1,inactive: > 76.9 µM
10,CCOc1ccc(N2C(=O)CC(/C=C3/N(C)c4ccccc4C3(C)C)C2=O)cc1 (configuration not stated),inactive: > 76.9 µM
11,CCN(C(C)=O)c1nc(CSc2nnc(NC(C)C)s2)cs1,inactive: > 76.9 µM
12,O=C(CSc1nnc2ccccn12)NC(=O)NC1CCCCC1,inactive: > 76.9 µM
13,COC(=O)C1=C(C)NC(=O)NC1c1ccccc1 (configuration not stated),inactive: > 76.9 µM
14,COc1ccc(-c2cn3c(C)c(C(=O)NCCN4CCOCC4)sc3n2)cc1,inactive
15,COc1ccc(OCCC(=O)OCC(=O)NCc2ccco2)cc1,inactive: > 76.9 µM
16,Cc1cc(NC(=O)COC(=O)CCCOc2ccc(Cl)cc2C)no1,inactive: > 76.9 µM
17,c1ccc2c(c1)CNC1(CCCCC1)C2,inactive: > 76.9 µM
18,CCC(C)NC(=O)c1cc(-c2ccc(OC)cc2)on1 (configuration not stated),inactive: > 76.9 µM
19,CCOC(=O)c1c(C)c(C(=O)Nc2ccc(N(C)C)cc2)c(C)n1CC,inactive: > 76.9 µM
20,CCOc1ccccc1OCC(=O)NCc1ccco1,inactive: > 76.9 µM
21,Cc1sc2c(c1C)CN(C1CC(C)(C)NC(C)(C)C1)CN2C(=O)c1ccco1,inactive: > 76.9 µM
22,COc1ccccc1N1CCN(c2cc(=O)n(-c3ccccc3Cl)c(=O)[nH]2)CC1,inactive: > 76.9 µM
23,Cc1ccc(-n2nnc3c(=O)n(CC(=O)N4CCCC4)cnc32)cc1,inactive: > 76.9 µM

row,Structure (SMILES),Potency
1,O=C(COC(=O)c1ccc2c(c1)OCO2)NC1CCS(=O)(=O)C1 (configuration not stated),inactive: > 76.9 µM
2,CC(C)(CSc1nncn1/N=C/c1ccco1)NS(=O)(=O)c1ccc(Cl)cc1,inactive: > 76.9 µM
3,CCn1c(SCC(=O)N2CCN(c3ccccc3)CC2)nnc1-c1ccoc1C,inactive: > 76.9 µM
4,O=C1C2C(C(=O)N1Cc1cccnc1)C1C=CC2C12CC2 (configuration not stated),inactive: > 76.9 µM
5,CCOC(=O)COc1ccc(C(=O)NC2CCCCC2)cc1,inactive: > 76.9 µM
6,CCN(Cc1ccccc1)C(c1ccncc1)c1nnnn1C(C)(C)C (configuration not stated),inactive: > 76.9 µM
7,CCOC(=O)C1CCCN(C(=O)c2c(-c3ccccc3Cl)noc2C)C1 (configuration not stated),inactive: > 76.9 µM
8,COc1cccc(-c2nnc(SCC(N)=O)n2-c2ccc(Cl)cc2)c1,inactive: > 76.9 µM
9,CC(NC(=O)COc1cc(=O)n(C)c2ccccc12)c1ccc2c(c1)OCCO2 (configuration not stated),inactive: > 76.9 µM
10,COc1cc(OC)c(C2=NOC(C(=O)NCc3ccc4c(c3)OCO4)C2)cc1Cl (configuration not stated),inactive: > 76.9 µM
11,Cc1ccc(NS(=O)(=O)c2ccc(CCC(=O)O)cc2)cc1,inactive: > 76.9 µM
12,COc1ccc(S(=O)(=O)CCC(=O)N2c3ccccc3CC2C)cc1 (configuration not stated),inactive: > 76.9 µM
13,COCc1cc(=O)[nH]c(/N=C(\N)Nc2ccc(Oc3ccccc3)cc2)n1,inactive: > 76.9 µM
14,COCCCNS(=O)(=O)c1ccc2c(c1)CCN2C(C)=O,inactive: > 76.9 µM
15,CCOC(=O)c1ccccc1NC(=O)CN1CCC(n2nnc3cc(F)ccc32)CC1,inactive: > 76.9 µM
16,COCC(=O)Oc1c(S(=O)(=O)c2ccc(C)cc2)c(C)nn1-c1ccccc1,inactive: > 76.9 µM
17,CCOc1cc(-c2noc(-c3cccnc3)n2)ccc1OC,inactive: > 76.9 µM
18,COc1ccc2cc3c(N)c(C(=O)NCc4ccco4)sc3nc2c1,inactive: > 76.9 µM
19,CCCCN(CC)S(=O)(=O)c1ccc(C(=O)Nc2nnc(-c3ccccc3Cl)o2)cc1,inactive: > 76.9 µM
20,O=C(CCn1nnc2ccccc21)Nc1nnc(-c2ccccc2F)s1,inactive: > 76.9 µM
21,Cc1cnc(NC(=O)CN2C(=O)C3CC=CCC3C2=O)s1 (configuration not stated),inactive: > 76.9 µM
22,O=C(NC1CC2CCCC(C1)N2Cc1cccs1)N1CCOCC1 (configuration not stated),inactive: > 76.9 µM
23,CCCOc1ccc2oc(=O)c3c(c2c1)CCCN3C(=O)CN(C)Cc1ccccc1,inactive: > 76.9 µM
